According to PMC4265154, “A reversible Renilla luciferase protein complementation assay for rapid identification of protein–protein interactions reveals the existence of an interaction network involved in xyloglucan biosynthesis in the plant Golgi apparatus” (Journal of Experimental Botany, 2014):
No constants are given. Whether binding was seen depends on the method and setting. In cells and extracts the contact can be indirect. Some binding calls cover weakened binding; strength is not graded here. Tags and fused reporters may be left off the sequences shown. Each block holds one binder with its values, some of them ahead of it.

Experiments:
Experiment in all cases: split reporter; Rluc-PCA: proteins with C-terminal hRluc[F1]-HA and hRluc[F2]-FLAG co-expressed with p19 in N. benthamiana leaves for 72 h (Agrobacterium OD600 0.2 each, p19 0.05); pooled leaf discs macerated in 0.5 M NaCl, 0.1 M potassium phosphate pH 7.4, 1 mM EDTA, 0.02% BSA, protease inhibitors; 10 uM coelenterazine-h, luminescence 30 s; compared with p19 alone
[1] = molecular target: T1, IRX10-L fused to hRluc fragment [F1] or [F2] (Arabidopsis thaliana) (UniProt Q940Q8)
T1 sequence: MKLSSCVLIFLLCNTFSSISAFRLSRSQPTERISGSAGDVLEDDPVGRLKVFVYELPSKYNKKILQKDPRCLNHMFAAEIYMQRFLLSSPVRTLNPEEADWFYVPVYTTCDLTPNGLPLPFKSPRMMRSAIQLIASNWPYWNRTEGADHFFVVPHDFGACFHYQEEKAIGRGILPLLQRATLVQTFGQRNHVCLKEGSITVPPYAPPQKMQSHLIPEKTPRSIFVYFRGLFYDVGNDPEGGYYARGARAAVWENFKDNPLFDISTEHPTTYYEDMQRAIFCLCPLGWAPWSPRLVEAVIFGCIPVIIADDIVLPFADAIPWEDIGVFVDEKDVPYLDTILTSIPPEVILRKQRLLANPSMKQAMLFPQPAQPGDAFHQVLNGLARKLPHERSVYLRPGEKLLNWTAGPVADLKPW

[2] = molecular target: T2, IRX14 fused to hRluc fragment [F1] or [F2] (Arabidopsis thaliana) (UniProt Q8L707)
T2 sequence: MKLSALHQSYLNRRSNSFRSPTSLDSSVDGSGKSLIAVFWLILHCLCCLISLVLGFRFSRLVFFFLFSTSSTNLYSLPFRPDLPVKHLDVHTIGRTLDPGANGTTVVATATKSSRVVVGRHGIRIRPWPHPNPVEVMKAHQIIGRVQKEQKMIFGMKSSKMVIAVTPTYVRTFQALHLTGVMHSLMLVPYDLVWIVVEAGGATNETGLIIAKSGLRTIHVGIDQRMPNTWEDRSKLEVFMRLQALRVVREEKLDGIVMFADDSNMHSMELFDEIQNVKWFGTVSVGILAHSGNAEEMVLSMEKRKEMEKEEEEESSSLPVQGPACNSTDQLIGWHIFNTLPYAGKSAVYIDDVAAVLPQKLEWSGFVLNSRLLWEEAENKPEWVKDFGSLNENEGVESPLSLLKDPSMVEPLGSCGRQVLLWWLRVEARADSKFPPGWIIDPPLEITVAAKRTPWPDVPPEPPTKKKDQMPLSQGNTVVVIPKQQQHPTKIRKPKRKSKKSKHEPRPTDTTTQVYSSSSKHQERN

[3] = molecular target: T3, XXT5 fused to hRluc fragment [F1] or [F2] (Arabidopsis thaliana) (UniProt Q9CA75)
T3 sequence: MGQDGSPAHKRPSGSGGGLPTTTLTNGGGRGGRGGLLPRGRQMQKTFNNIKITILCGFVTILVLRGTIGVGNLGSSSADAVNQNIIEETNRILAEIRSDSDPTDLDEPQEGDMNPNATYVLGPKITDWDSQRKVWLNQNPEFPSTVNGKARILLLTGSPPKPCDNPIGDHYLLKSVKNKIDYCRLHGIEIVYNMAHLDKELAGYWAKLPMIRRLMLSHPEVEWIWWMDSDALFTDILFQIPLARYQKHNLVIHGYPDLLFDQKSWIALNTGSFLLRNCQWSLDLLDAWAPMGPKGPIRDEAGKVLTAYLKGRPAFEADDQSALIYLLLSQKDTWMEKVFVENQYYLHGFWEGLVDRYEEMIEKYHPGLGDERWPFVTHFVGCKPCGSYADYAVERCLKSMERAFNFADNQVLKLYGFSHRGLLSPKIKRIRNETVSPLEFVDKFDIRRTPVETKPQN

[4] = molecular target: T4, FUCO…1 (FUT1) fused to hRluc fragment [F1] or [F2] (Arabidopsis thaliana) (UniProt Q9SWH5)
T4 sequence: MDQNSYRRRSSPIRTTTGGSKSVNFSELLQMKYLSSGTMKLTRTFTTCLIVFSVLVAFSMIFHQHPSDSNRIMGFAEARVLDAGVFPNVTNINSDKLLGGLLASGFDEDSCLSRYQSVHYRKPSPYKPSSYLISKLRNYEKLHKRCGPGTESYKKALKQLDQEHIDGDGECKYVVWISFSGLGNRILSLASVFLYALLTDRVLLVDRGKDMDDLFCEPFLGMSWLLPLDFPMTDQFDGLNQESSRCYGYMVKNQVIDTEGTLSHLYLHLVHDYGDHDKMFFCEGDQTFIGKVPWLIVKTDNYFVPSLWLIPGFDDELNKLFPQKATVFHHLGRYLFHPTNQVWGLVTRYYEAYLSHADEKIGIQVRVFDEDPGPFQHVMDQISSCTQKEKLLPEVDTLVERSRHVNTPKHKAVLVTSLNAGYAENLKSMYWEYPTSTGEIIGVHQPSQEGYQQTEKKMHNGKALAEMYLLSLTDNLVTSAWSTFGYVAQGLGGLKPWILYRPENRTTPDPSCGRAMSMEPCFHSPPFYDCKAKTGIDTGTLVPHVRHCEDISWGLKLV

binding [1]: no binding | binding [2]: no binding
B1: IRX10 fused to hRluc fragment [F1] or [F2] (protein, UniProt Q9FZJ1 1-412)
chain: MKIHSCLSAILLFLFFSASSAKQNVRTERISGSAGDVLEDDPVGKLKVYVYELPSKYNKKLLQKDPRCLTHMFAAEIFMHRFLLSSPVRTRNPDEADWFYTPIYPTCDLTPTGLPLPFKSPRMMRSSIQLISSNWPYWNRTEGADHFFVVPHDFGACFHYQEEKAIERGILPLLQRATLVQTFGQRNHVCLDEGSITIPPFAPPQKMQAHFIPPDIPRSIFVYFRGLFYDVNNDPEGGYYARGARAAVWENFKNNPLFDISTDHPTTYYEDMQRAIFCLCPLGWAPWSPRLVEAVVFGCIPVIIADDIVLPFADAIPWEEIGVFVAEKDVPELDTILTSIPTEVILRKQRLLANPSMKRAMLFPQPAQPGDAFHQILNGLARKLPHDKSIYLKTGEKALNWTAGPVADLKPW

binding [3]: no binding
B2: XXT5 fused to hRluc fragment [F1] or [F2] (protein, UniProt Q9CA75 1-457)
chain: MGQDGSPAHKRPSGSGGGLPTTTLTNGGGRGGRGGLLPRGRQMQKTFNNIKITILCGFVTILVLRGTIGVGNLGSSSADAVNQNIIEETNRILAEIRSDSDPTDLDEPQEGDMNPNATYVLGPKITDWDSQRKVWLNQNPEFPSTVNGKARILLLTGSPPKPCDNPIGDHYLLKSVKNKIDYCRLHGIEIVYNMAHLDKELAGYWAKLPMIRRLMLSHPEVEWIWWMDSDALFTDILFQIPLARYQKHNLVIHGYPDLLFDQKSWIALNTGSFLLRNCQWSLDLLDAWAPMGPKGPIRDEAGKVLTAYLKGRPAFEADDQSALIYLLLSQKDTWMEKVFVENQYYLHGFWEGLVDRYEEMIEKYHPGLGDERWPFVTHFVGCKPCGSYADYAVERCLKSMERAFNFADNQVLKLYGFSHRGLLSPKIKRIRNETVSPLEFVDKFDIRRTPVETKPQN

binding [4]: binds
B3: MURUS3/KATAMARI1 (MUR3) fused to hRluc fragment [F1] or [F2] (natural protein, Arabidopsis thaliana, UniProt Q7XJ98 1-619, looked up)
chain: MFPRVSMRRRSAEVSPTEPMEKGNGKNQTNRICLLVALSLFFWALLLYFHFVVLGTSNIDKQLQLQPSYAQSQPSSVSLRVDKFPIEPHAAPSKPPPKEPLVTIDKPILPPAPVANSSSTFKPPRIVESGKKQEFSFIRALKTVDNKSDPCGGKYIYVHNLPSKFNEDMLRDCKKLSLWTNMCKFTTNAGLGPPLENVEGVFSDEGWYATNQFAVDVIFSNRMKQYKCLTNDSSLAAAIFVPFYAGFDIARYLWGYNISRRDAASLELVDWLMKRPEWDIMRGKDHFLVAGRITWDFRRLSEEETDWGNKLLFLPAAKNMSMLVVESSPWNANDFGIPYPTYFHPAKDSEVFEWQDRMRNLERKWLFSFAGAPRPDNPKSIRGQIIDQCRNSNVGKLLECDFGESKCHAPSSIMQMFQSSLFCLQPQGDSYTRRSAFDSMLAGCIPVFFHPGSAYTQYTWHLPKNYTTYSVFIPEDDVRKRNISIEERLLQIPAKQVKIMRENVINLIPRLIYADPRSELETQKDAFDVSVQAVIDKVTRLRKNMIEGRTEYDYFVEENSWKYALLEEGQREAGGHVWDPFFSKPKPGEDGSSDGNGGTTISADAAKNSWKSEQRDKTQ
notes: Made in two forms, one with [F1]-HA and one with [F2]-FLAG; a chain carries one of the two; also called MUR3-[F1]; MUR3-[F2]; source: N. benthamiana leaves, transient expression (A. tumefaciens GV3101, with p19), in crude leaf macerate; not shown: hRluc[F1]; (Renilla luciferase residues 1-110) with HA, C-terminal, kept; hRluc[F2]; (Renilla luciferase residues 111-310) with FLAG, C-terminal, kept
